About 14,000 (4.5%) of roughly 310,000 compounds showed an effect of 50% or more. Effects have a minus sign here. Some of the results follow.
molecular target: human ether-à-go-go-related gene (hERG) potassium channel (human, UniProt Q12809); test: primary screen, population patch clamp on CHO cells stably expressing hERG
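Also: peak tail current of the secondary pulse compared with the same well before compound.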

Chain of human ether-à-go-go-related gene (hERG) potassium channel (Q12809 whole entry, looked up): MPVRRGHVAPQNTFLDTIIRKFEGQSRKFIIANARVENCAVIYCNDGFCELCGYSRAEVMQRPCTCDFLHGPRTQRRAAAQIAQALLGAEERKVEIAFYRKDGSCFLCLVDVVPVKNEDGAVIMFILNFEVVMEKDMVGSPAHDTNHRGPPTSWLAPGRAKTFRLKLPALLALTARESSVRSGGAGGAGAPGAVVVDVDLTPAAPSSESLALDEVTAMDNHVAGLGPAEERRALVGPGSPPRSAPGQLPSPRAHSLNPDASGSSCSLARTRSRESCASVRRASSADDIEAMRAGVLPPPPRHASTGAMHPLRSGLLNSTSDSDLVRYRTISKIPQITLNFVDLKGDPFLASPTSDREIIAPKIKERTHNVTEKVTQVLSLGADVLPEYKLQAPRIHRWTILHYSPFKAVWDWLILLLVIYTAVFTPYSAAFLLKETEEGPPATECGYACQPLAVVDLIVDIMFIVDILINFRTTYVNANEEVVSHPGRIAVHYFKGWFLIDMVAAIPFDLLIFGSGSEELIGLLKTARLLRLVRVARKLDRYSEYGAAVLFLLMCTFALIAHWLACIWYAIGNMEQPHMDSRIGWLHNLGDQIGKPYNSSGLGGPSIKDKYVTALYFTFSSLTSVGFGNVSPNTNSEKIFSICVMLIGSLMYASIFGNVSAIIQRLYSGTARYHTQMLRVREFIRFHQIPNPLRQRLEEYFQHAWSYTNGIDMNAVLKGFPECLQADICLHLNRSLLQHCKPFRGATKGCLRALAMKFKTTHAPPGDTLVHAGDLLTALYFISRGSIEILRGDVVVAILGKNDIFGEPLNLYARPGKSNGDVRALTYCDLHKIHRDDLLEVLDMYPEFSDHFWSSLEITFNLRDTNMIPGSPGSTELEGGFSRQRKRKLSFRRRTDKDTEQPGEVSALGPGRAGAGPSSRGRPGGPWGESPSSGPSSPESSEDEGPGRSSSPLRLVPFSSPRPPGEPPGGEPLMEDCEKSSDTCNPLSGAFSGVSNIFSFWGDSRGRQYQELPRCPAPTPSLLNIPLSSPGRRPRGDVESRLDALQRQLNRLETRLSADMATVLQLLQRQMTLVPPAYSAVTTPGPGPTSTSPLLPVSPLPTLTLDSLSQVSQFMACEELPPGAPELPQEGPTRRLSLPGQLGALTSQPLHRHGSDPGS

Structure (SMILES)	hERG current change (%, negative = inhibition) at 10uM [%]
CCOc1cccc(CN2CCC(n3nccc3NC(=O)CCCc3ccccc3)CC2)c1	-27.5
Clc1cccc(Cn2ncc3ccccc32)c1	6.32
CCC(=O)NNC(=O)c1c(O)c2ccccc2[nH]c1=O	26.2
Cc1ccc(/C=C/C(=O)Nc2cc(=O)n(C)c(=O)n2C)o1	1.7
Cn1c(=O)cc(SCC(=O)NCCCN2CCN(c3ccc(F)cc3)CC2)c2ccccc21	-69.2
CCOC(=O)[C@H]1[C@H]2COc3ccc(Cl)cc3[C@@H]2N2C(=O)CN(Cc3ccc(F)cc3)C(=O)[C@@]12C	12.1
Nc1c(N(CCC2=CCCCC2)C(=O)C2CC2)c(=O)[nH]c(=O)n1Cc1ccccc1	-3.26
COCc1nnc(NC(=O)CSc2ccccc2)s1	-21.4
COc1cc(NC(=S)N2CCC(C(N)=O)CC2)cc(OC)c1	-12.1
CCOC(=O)NC(=S)c1ccc[nH]1	5.4
COc1ccccc1N(C(=O)Cn1nnc2ccccc21)C(C(=O)NCc1ccco1)c1ccc(C)o1 (stereo not drawn)	-2.8
CCN(CC)S(=O)(=O)c1cc(NC(=O)CCNC(=O)c2ccco2)ccc1C	0.915
Cc1ccc(CC(=O)N2CCN(S(=O)(=O)c3ccccc3)CC2)cc1C	-55.5
CSc1nc(C)cc(SCC(=O)Nc2ccccc2)n1	-13.3
CCOC(=O)C1CCCN(C(=O)CCCn2nc(C)n3c(cc4sccc43)c2=O)C1 (stereo not drawn)	-49.3
Cc1ccnc(NS(=O)(=O)c2ccc(N3C(=O)C4CCCCC4C3=O)cc2)n1 (stereo not drawn)	22.9
Cc1cc(C)n(C(=O)c2cccc(S(=O)(=O)N3CCCCC3)c2)n1	-19.3
N#CC(C#N)=NNc1ccc(-n2ccc(C(F)(F)F)n2)cc1	-37.7
COCCn1c(=O)[nH]c2cc(C(=O)N3CCN(c4cc(C)ccc4C)CC3)ccc2c1=O	4.61
Cc1cc(C)c(CN2CCCC(CNC(=O)c3ccc(F)cc3)C2)c(-n2cccn2)c1 (stereo not drawn)	-75.6
O=C(COc1ccc(-c2ccccc2)cc1)N/N=C/c1ccccc1Br	19.7
Clc1ccccc1CSc1nnc(-c2ccccn2)n1Cc1ccco1	-0.318
NC(=S)N/N=C1\CCOc2ccc(F)cc21	-76.9
COc1ccc2oc(C(=O)NCCN3CCOCC3)c(C)c2c1OC	4.6

— PMC4336329 (PLoS ONE, 2015)
